# Where “and” joins values, the source holds several entries; their conditions need not be identical. Equal entries are not always repeated. Screen size: about 230,000 compounds; about 3,600 (1.6%) were called active. The inconclusive results got no clear call from the source; some entries with a clear call stand among them for comparison. Calls come from the whole dose curve; as a rule, active = well fitted inhibition curve with a large enough effect (not every such curve was filed as active); inconclusive = small, poorly fitted or top-dose-only effect, or another doubt; inactive = no such curve, though single readings can be large or run the other way. Potencies of inconclusive entries are doubtful fits and often do not repeat.
# Target: Lysine-specific demethylase 4E (Homo sapiens) (UniProt B2RXH2)
# Chain of UniProt B2RXH2 (B2RXH2 whole entry, looked up, the tested form may be a part): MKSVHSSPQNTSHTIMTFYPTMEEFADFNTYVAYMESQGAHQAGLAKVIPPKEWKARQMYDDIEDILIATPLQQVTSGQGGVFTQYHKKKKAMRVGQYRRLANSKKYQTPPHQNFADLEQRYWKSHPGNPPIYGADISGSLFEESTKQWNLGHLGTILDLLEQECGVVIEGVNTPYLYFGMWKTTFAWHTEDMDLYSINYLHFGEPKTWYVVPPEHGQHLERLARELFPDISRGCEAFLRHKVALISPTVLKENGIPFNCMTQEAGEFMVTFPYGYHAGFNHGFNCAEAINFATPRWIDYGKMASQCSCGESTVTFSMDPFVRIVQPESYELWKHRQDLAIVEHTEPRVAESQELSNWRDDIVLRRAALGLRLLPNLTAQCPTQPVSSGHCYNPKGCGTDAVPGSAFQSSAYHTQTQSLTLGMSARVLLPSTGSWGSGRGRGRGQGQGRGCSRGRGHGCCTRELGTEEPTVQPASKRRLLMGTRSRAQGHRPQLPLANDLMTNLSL
# Experiment: qHTS Assay for Inhibitors of Human Jumonji Domain Containing 2E (JMJD2E)
# Details: JMJD2E catalytic domain, FDH-coupled NADH fluorescence (FDH is formaldehyde dehydrogenase); series mostly up to 57.1 µM; activity change, negative = inhibition: at the top concentration
# Note: nearly all actives have a fitted effect of over 50% in size.
# Potency is the fitted concentration of half-maximal effect; tags give direction and shape of the fitted curve.
# 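Throughout, for activity change, negative = inhibition: 0% = wells with enzyme and -100% = buffer wells without enzyme.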
SMILES,Potency,"activity change, negative = inhibition"
O=C(O)CN1C(=O)/C(=C/c2ccc(SCc3ccccc3)o2)SC1=S,"inconclusive: 39.8 µM [inhibitor, single point]",
O=C(c1cc(-c2ccc3c(c2)OCO3)on1)N1CCOCC1,,inactive: 0.214%
O=C(O)COCC(=O)Nc1ccc(-n2nc(C(F)(F)F)cc2-c2cccs2)cc1,"inconclusive: 39.8 µM [inhibitor, single point]",
Clc1ccc(-c2cc3ccccc3[nH]2)cc1,"inconclusive: 28.2 µM [inhibitor, partial curve]",
O=C(NCC(c1ccco1)N1CCCCC1)c1ccc2c(c1)S(=O)(=O)c1ccccc1C2=O (stereo unspecified),"inconclusive: 28.2 µM [inhibitor, single point]",
CCCS(=O)(=O)NCc1cn2cccc(C)c2n1,"inconclusive: 31.6 µM [inhibitor, partial curve]",
COCCCn1c(SCC(=O)O)nc2cc(OC)c(OC)cc2c1=N,"inconclusive: 25.1 µM [inhibitor, partial curve]",
N#C/C(=C/c1cn(-c2ccccc2)nc1-c1cccc(OCc2ccccc2)c1)C(=O)NCCCn1ccnc1,"inconclusive: 25.1 µM [inhibitor, partial curve]",
S=c1[nH]nc(-c2ccncc2)n1CC1CCCO1 (stereo unspecified),,inactive: 5.45%
O=C(O)CCC(=O)N1CCc2cc(S(=O)(=O)N3CCN(c4ccc(F)cc4)CC3)ccc21,"inconclusive: 39.8 µM [inhibitor, single point]",
CCN1C(=O)C(O)(CC(=O)/C=C/C=C/c2ccccc2)c2ccccc21 (stereo unspecified),,inactive: 6.74%
COc1ccc(S(=O)(=O)N2CCN(C3CCCCCCC3)CC2)cc1,"inconclusive: 31.6 µM [inhibitor, single point] and inconclusive: 25.1 µM [inhibitor, single point]",
CCCN1CCC2(CC1)C(C#N)=C(N)Oc1c2sc2nc(C)cc(C)c12,"inconclusive: 28.2 µM [inhibitor, partial curve]",
COc1cccc(CC2(CO)CCCN(CC3=Cc4cc(Cl)ccc4OC3)C2)c1 (stereo unspecified),,inactive: -6.63%
COc1ccc(-c2ccc(-c3noc(-c4ccccc4C)n3)c(OC)n2)cc1,"inconclusive: 3.55 µM [inhibitor, full curve]",
O=C(O)/C=C/c1cccc2c1OCCO2,"inconclusive: 28.2 µM [inhibitor, partial curve]",
Cc1nc(SCC(=O)c2ccccc2)n[nH]1,"inconclusive: 39.8 µM [inhibitor, single point]",
CCOC(=O)c1oc2ccc(Br)cc2c1NC(=O)CN1CCN(C)CC1,,inactive: -20.7%
CCCCCCNC(=O)Cc1c(O)c2ccccc2[nH]c1=O,"inconclusive: 22.4 µM [inhibitor, partial curve]",
N#Cc1ccc2ccn(CC(=O)NC3CCCCCC3)c2c1,"inconclusive: 28.2 µM [inhibitor, partial curve]",
COc1ccc(/C=C/C2=NNC(=O)CC2)cc1,"inconclusive: 0.708 µM [inhibitor, partial curve]",
CCOc1ccc2nc(NC(=O)c3cnc(C)cn3)sc2c1,,inactive: 1.59%
O=C(O)CCn1c2c(c3ccccc31)CCCC2,"inconclusive: 31.6 µM [inhibitor, partial curve]",

SMILES,Potency,"activity change, negative = inhibition"
O=P(O)(O)C(O)C(F)(F)C(F)(F)C(F)(F)C(F)F (stereo unspecified),"inconclusive: 35.5 µM [inhibitor, single point]",
COC(=O)c1cc(NC(=O)N2c3ccccc3Sc3ccccc32)cc(C(=O)OC)c1,"inconclusive: 35.5 µM [inhibitor, partial curve]",
COc1ccc(C(=O)C(CN2CCOCC2)c2ccccc2)cc1F (stereo unspecified),,inactive: -0.55%
O=C1c2ccccc2NC(c2c(Cl)cccc2Cl)N1Cc1ccccc1 (stereo unspecified),"inconclusive: 11.2 µM [inhibitor, partial curve]",
O=C(COC(=O)c1ccccc1C(=O)c1ccccc1)Nc1cccc([N+](=O)[O-])c1,,inactive: 3.35%
CCCNc1sc(S(=O)(=O)CCC)nc1S(=O)(=O)c1ccc(C)cc1,,inactive: -17.2%
O=C1Nc2ccc(I)cc2/C1=C/c1cc(Br)c(O)c(Br)c1,inactive,
CC(OC(=O)c1cccnc1)C(=O)NCc1ccc2c(c1)OCO2 (stereo unspecified),,inactive: -6.25%
Clc1ccc(Oc2nc3ccccc3n3cccc23)cc1,"inconclusive: 35.5 µM [inhibitor, partial curve]",
COc1ccccc1/C=C/C=N/NC(=O)c1cc(-c2ccc(C)o2)[nH]n1,"inconclusive: 39.8 µM [inhibitor, single point]",
CCc1cc2c(CN3CCN(C)CC3)cc(=O)oc2cc1O,"inconclusive: 31.6 µM [inhibitor, partial curve]",
CN(C)CCNc1c2c(c(C#N)c3nc4ccccc4n13)CCCC2,"inconclusive: 39.8 µM [inhibitor, single point]",
NC(=O)CSc1nc2sc(-c3ccccc3)cc2c(=O)n1N,"inconclusive: 35.5 µM [inhibitor, single point]",
CCCN=Cc1c(CCC)[nH]n(-c2nc3ccccc3s2)c1=O,,inactive: 1.76%
CCCn1c(=O)[nH]c(=O)c2c1nc(-c1cccs1)n2CCOC,"inconclusive: 28.2 µM [inhibitor, partial curve]",
N#CC(c1ccccc1O)N1N=C(c2ccccc2)CC1c1ccccc1 (stereo unspecified),active: 31.6 µM,
COc1ccc(C(=O)N=c2sc3c(C)ccc(OC)c3n2C)cc1,"inconclusive: 7.94 µM [inhibitor, partial curve]",
COc1ccc(/C=C2\CCCC3C2=NN(C(=O)c2scnc2C)C3c2ccc(OC)cc2)cc1 (stereo unspecified),"inconclusive: 28.2 µM [inhibitor, partial curve]",
COCCCNC(=O)/C(C#N)=C/c1ccc(F)cc1,,inactive: 5.9%
O=C1c2cccc3cccc(c23)C(=O)N1c1ccncc1,"inconclusive: 10 µM [inhibitor, partial curve]",
COc1ccc(CCNc2cc(C)nc3c(-c4ccc(Cl)cc4)c(C)nn23)cc1OC,"inconclusive: 28.2 µM [inhibitor, partial curve]",
COc1ccccc1/C=C/C=N/n1c(-c2ccccc2)n[nH]c1=S,,inactive: -6.31%
COc1cc(C)c(S(=O)(=O)N2CCOCC2)cc1C,,inactive: 1.08%

# Source: PubChem BioAssay AID2147 (National Center for Advancing Translational Sciences (NCATS), 2009)
